Source: PubChem BioAssay AID1345082 (National Center for Advancing Translational Sciences (NCATS), 2018)
The whole screen tested about 94,000 compounds, of which about 4,000 (4.3%) were called active. Inconclusive means that the source gave no clear call. Such entries were picked first, then a sample of the others. Calls come from the whole dose curve; as a rule, active = well fitted inhibition curve with a large enough effect; inconclusive = small, poorly fitted or top-dose-only effect; inactive = no such curve, though single readings can be large or run the other way. A potency beside an inconclusive call is a rough fit, not a confirmed value.

Test: Cytotoxic Profiling in NIH 3T3 Cell Line of Diverse Libraries Using Quantitative High-Throughput Screening; note: nearly all actives have a fitted effect of over 55% in size
Conditions: NIH 3T3 viability, CellTiter-Glo ATP luminescence, 48-72 h; series mostly up to 96.7 µM; activity change, negative = cytotoxicity: at the top concentration
Method in brief: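 First NIH 3T3 cells are plated at 400 cells/well; next compound is pinned in; then plates incubate 48 or 72 hr at 37 °C; finally CellTiter-Glo is added and luminescence read after 10 min.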
% is set by controls: 0 for no effect and ±100 for the full control effect; potency is the fitted concentration of half-maximal effect; tags give direction and shape of the fitted curve.

SMILES	activity change, negative = cytotoxicity	Potency	outcome
Fc1ccc(CN2CCCC3(CC(c4ccccn4)=NO3)C2)cc1 (stereo not given)	inactive: -16.9%	–	–
Cn1nc(-c2ccc(F)cc2)cc1[C@H]1CN2CC[C@H]1C[C@@H]2CNCc1ccccn1	–	inconclusive: 28.2 µM [inhibitor, full curve]	–
Cc1nc(-c2ccccc2Br)cc([C@H]2CN3CC[C@H]2C[C@@H]3CNC(=O)c2ccccc2)n1	–	inconclusive: 70.8 µM [inhibitor, single point]	–
C#C[C@H]1CN2CC[C@H]1C[C@@H]2CNCc1cccc(Cl)c1	–	inconclusive: 141 µM [inhibitor, partial curve, poor fit]	–
O=C(Cc1c[nH]c2ncc(-c3cccnc3)cc12)N1CCN(Cc2ccccc2)CC1	–	inconclusive: 56.2 µM [inhibitor, partial curve, poor fit]	–
O=C1CCC2(CCNCC2)CCN1CC1CC1	–	–	inactive
COc1cc2c(cc1OCc1ccc(Cl)cc1)N(Cc1ccccc1)CC21CCN(C(C)=O)CC1	–	inconclusive: 50.1 µM [inhibitor, partial curve, poor fit]	–
CSc1cccc(NC(=O)NC[C@H]2C[C@@H]3CCN2C[C@@H]3CN(C)c2ccccc2)c1	–	active: 31.6 µM	–
COc1ccc(C(=O)NC[C@H]2C[C@@H]3CCN2C[C@@H]3c2cc(-c3cccs3)nn2C)cc1	–	inconclusive: 50.1 µM [inhibitor, partial curve, poor fit]	–
COc1cc2c(cc1OCC1CC1)NC(=O)C21CCN(C(C)=O)CC1	–	inconclusive: 79.4 µM [inhibitor, partial curve, poor fit]	–
C=C[C@H]1CN2CC[C@H]1C[C@@H]2CNS(=O)(=O)c1ccccc1	inactive: 3.81% [at 174 µM]	–	–
FC(F)(F)CN1C2CCC1CN(c1ncnc3sc(Cl)nc13)C2	–	inconclusive: 2.82 µM [inhibitor, full curve, poor fit]	–
COc1cc2c(cc1Oc1cccc(N(C)C)c1)NC(=O)C21CCN(C(=O)C2CCC2)CC1	–	inconclusive: 31.6 µM [inhibitor, partial curve, poor fit]	–
COC[C@H]1CCCN1C[C@H]1CN2CC[C@H]1C[C@@H]2CNC(=S)Nc1ccc(-n2cccn2)cc1	–	inconclusive: 56.2 µM [inhibitor, partial curve, poor fit]	–
CCCCOC(=O)N1C[C@H](C(=O)OCC)[C@H]2c3ccccc3N(C)C(=O)[C@]21C	–	inconclusive: 35.5 µM [inhibitor, partial curve, poor fit]	–
CSc1cccc(NC(=O)NC[C@H]2C[C@@H]3CCN2C[C@@H]3CN(C)Cc2ccccc2)c1	–	active: 22.4 µM	–
CCOC(=O)[C@@H]1[C@H]2c3ccccc3N(C)C(=O)[C@H]2N(C(=O)c2cccs2)[C@@H]1c1ccccc1	–	inconclusive: 50.1 µM [inhibitor, partial curve, poor fit]	–
O=C(Nc1ccc2n(c1=O)C[C@H]1C[C@@H]2CN(C(=O)c2ccccn2)C1)c1ccc(F)cc1	–	inconclusive: 112 µM [inhibitor, partial curve, poor fit]	–
CN(CCc1ccccn1)C[C@H]1CN2CC[C@H]1C[C@@H]2CNS(=O)(=O)c1ccc(Cl)cc1	–	inconclusive: 89.1 µM [inhibitor, single point]	–
COc1cc2c(cc1Oc1ccccc1)NC(=O)C21CCN(c2ncccn2)CC1	–	active: 79.4 µM	–

SMILES	activity change, negative = cytotoxicity	Potency	outcome
CN(C[C@H]1CN2CC[C@H]1C[C@@H]2CNS(=O)(=O)c1cccs1)c1ccccc1	–	inconclusive: 112 µM [inhibitor, partial curve]	–
COc1ccc(-n2cc(C3=CCN(CCN4CCOCC4)CC3)cn2)cc1	–	inconclusive: 44.7 µM [inhibitor, partial curve, poor fit]	–
O=C(O)C1CC2(CCN(C(=O)CCc3ccncc3)CC2)CN1 (stereo not given)	inactive: -11.6%	–	–
O=C(c1ccc2c(c1)OCO2)N1[C@H]2CC[C@@H]1c1cnc(-c3ccccc3)nc1C2	–	inconclusive: 25.1 µM [inhibitor, full curve]	–
CCOC(=O)[C@H]1CN(C(=O)COc2ccccc2)[C@]2(C)C(=O)Nc3ccccc3[C@H]12	–	inconclusive: 35.5 µM [inhibitor, partial curve, poor fit]	–
COc1cc2c(cc1OCc1ccccc1)N([S+](=O)([O-])c1ccc3c(c1)CCO3)CC21CCN(C)CC1	–	inconclusive: 11.2 µM [inhibitor, full curve, poor fit]	–
COc1ccc([S+](=O)([O-])N2CC3(CCN(CC(=O)O)CC3)c3cc(OC)c(OCC4CCCC4)cc32)cc1	–	inconclusive: 70.8 µM [inhibitor, single point]	–
COc1cc2c(cc1OCc1ccccc1)NC(=O)C21CCN(Cc2ccccc2)CC1	–	active: 31.6 µM	–
CN(C)[C@@H]1CN(C(=O)Cc2ccccc2)CCC1(O)c1ccccc1 (stereo not given in full)	–	–	inactive
Cc1ccc(C(=O)NC[C@H]2C[C@@H]3CCN2C[C@@H]3c2cc(-c3cccs3)nc(C)n2)cc1	–	active: 28.2 µM	–
CCOC(=O)[C@H]1CN(C(=O)c2ccc3c(c2)OCO3)[C@]2(C)C(=O)N(C)c3ccccc3[C@H]12	inactive: -19.1%	–	–
CC(=O)c1cccc(NC(=O)NC[C@H]2C[C@@H]3CCN2C[C@@H]3c2cc(-c3ccc(F)cc3)nc(C)n2)c1	–	inconclusive: 50.1 µM [inhibitor, partial curve, poor fit]	–
CC[C@H]1CN2CC[C@H]1C[C@@H]2CNC(=O)Nc1cc(OC)cc(OC)c1	–	inconclusive: 126 µM [inhibitor, single point]	–
COc1cc2c(cc1OC1CCCC1)NC(=O)C21CCN(Cc2cccnc2)CC1	–	inconclusive: 79.4 µM [inhibitor, partial curve]	–
COC[C@H]1CCCN1C[C@H]1CN2CC[C@H]1C[C@@H]2CNC(=O)c1ccc(C(F)(F)F)cc1	–	inconclusive: 100 µM [inhibitor, partial curve, poor fit]	–
O=C1NC[C@H]2CN(C3CCOCC3)CCN12	inactive: -1.07% [at 230 µM]	–	–
CCOC(=O)CCNC(=O)N1[C@H]2CC[C@@H]1c1cnc(-c3ccc(F)cc3)nc1C2	inactive: -21.4%	–	–
CN(C[C@H]1CN2CC[C@H]1C[C@@H]2CNC(=O)c1ccccc1)c1ccccc1	–	inconclusive: 100 µM [inhibitor, partial curve]	–
CCC(CC)c1cc([C@H]2CN3CC[C@H]2C[C@@H]3CNC(=O)Nc2cccc(C#N)c2)nc(-c2ccncc2)n1	–	active: 79.4 µM	–
C#C[C@H]1CN2CC[C@H]1C[C@@H]2CNCc1ccc(N(C)C)cc1	–	inconclusive: 112 µM [inhibitor, partial curve, poor fit]	–

SMILES	activity change, negative = cytotoxicity	Potency	outcome
CCOC(=O)[C@H]1CN(C(=O)c2cc3ccccc3s2)[C@]2(C)C(=O)N(C)c3ccccc3[C@H]12	–	inconclusive: 35.5 µM [inhibitor, partial curve, poor fit]	–
N#Cc1ccc(C(=O)N2C[C@@H]3C[C@H](C2)c2c(-c4ccc(Cl)cc4)ccc(=O)n2C3)cc1	inactive: -20.8% [at 174 µM]	–	–
OCC1CN2CCCCC2CN1 (stereo not given)	–	–	inactive [at 279 µM]
CCN1Cc2ccccc2NC(=O)C12CCNC2 (stereo not given)	inactive: 1.18%	–	–
Cc1nc(-c2ccccc2)cc([C@H]2CN3CC[C@H]2C[C@@H]3CNC2CCOCC2)n1	–	active: 31.6 µM	–
Cc1nc(-c2ccccc2Br)cc([C@H]2CN3CC[C@H]2C[C@@H]3CNC(=O)c2ccc(N(C)C)cc2)n1	–	inconclusive: 50.1 µM [inhibitor, partial curve, poor fit]	–
Cc1ccccc1-c1ccc2n(c1=O)C[C@H]1C[C@@H]2CN(C(=O)CSCC(=O)O)C1	inactive: 3.5% [at 174 µM]	–	–
COc1ccc(-c2cc([C@H]3CN4CC[C@H]3C[C@@H]4CNC(=O)c3ccc4c(c3)OCO4)n(C)n2)cc1	–	inconclusive: 79.4 µM [inhibitor, partial curve, poor fit]	–
Cc1ncc2c(n1)C[C@@H]1CC[C@H]2N1C(=O)C1CCCC1	inactive: -1.16%	–	–
N#CC1(c2ccccc2)CCN(C(=O)c2cn(-c3ccccc3)nn2)CC1	–	inconclusive: 79.4 µM [inhibitor, single point]	–
C=C[C@H]1CN2CC[C@H]1C[C@@H]2CNCc1ccc(-c2ccccc2)cc1	–	inconclusive: 112 µM [inhibitor, partial curve, poor fit]	–
CNCc1cn(C[C@H]2CC3CCN2C[C@@H]3C(=O)Nc2ccccc2)nn1 (stereo not given in full)	inactive: -0.582% [at 174 µM]	–	–
Cc1nc(-c2ccccc2Br)cc([C@H]2CN3CC[C@H]2C[C@@H]3CNC(=O)Nc2ccccc2)n1	–	inconclusive: 70.8 µM [inhibitor, partial curve, poor fit]	–
COc1ccc(NC(=O)N2[C@H]3CC[C@@H]2c2cnc(-c4ccc(F)cc4)nc2C3)cc1OC	–	inconclusive: 15.8 µM [inhibitor, partial curve, poor fit]	–
Cc1ncc2c(n1)C[C@@H]1CC[C@H]2N1C(=O)Nc1ccc(C)c(F)c1	inactive: -24.6%	–	–
Cc1nc(-c2ccc(N(C)C)cc2)cc([C@H]2CN3CC[C@H]2C[C@@H]3CNC(=O)NC(C)C)n1	–	active: 89.1 µM	–
Cc1ccc(-n2cccc2CC(=O)N2CCN(C3CCN(C)CC3)CC2)cc1	inactive: -16.6%	–	–
CCOC(=O)[C@H]1CN(C(=O)OCC(C)(C)C)[C@]2(C)C(=O)N(CCO)c3ccccc3[C@H]12	inactive: -4.74% [at 46.1 µM]	–	–
Cn1nc(-c2ccc3ccccc3c2)cc1[C@H]1CN2CC[C@H]1C[C@@H]2CNC(=O)N1CCOCC1	–	inconclusive: 56.2 µM [inhibitor, partial curve, poor fit]	–
COc1cc2c(cc1OCc1ccncc1)NC(=O)C21CCN(c2nc(C)cc(C)n2)CC1	–	inconclusive: 44.7 µM [inhibitor, partial curve, poor fit]	–
